Experimental data published in publication PMC4336329 (PLoS ONE, 2015).
Screen size: about 310,000 compounds; about 2,200 (0.71%) showed an effect of 50% or more. Effects have a minus sign here. This is one part of the list.

biological target: human ether-à-go-go-related gene (hERG) potassium channel (human, UniProt Q12809); assay: primary screen, population patch clamp on CHO cells stably expressing hERG
Sequence (Q12809 whole entry, looked up): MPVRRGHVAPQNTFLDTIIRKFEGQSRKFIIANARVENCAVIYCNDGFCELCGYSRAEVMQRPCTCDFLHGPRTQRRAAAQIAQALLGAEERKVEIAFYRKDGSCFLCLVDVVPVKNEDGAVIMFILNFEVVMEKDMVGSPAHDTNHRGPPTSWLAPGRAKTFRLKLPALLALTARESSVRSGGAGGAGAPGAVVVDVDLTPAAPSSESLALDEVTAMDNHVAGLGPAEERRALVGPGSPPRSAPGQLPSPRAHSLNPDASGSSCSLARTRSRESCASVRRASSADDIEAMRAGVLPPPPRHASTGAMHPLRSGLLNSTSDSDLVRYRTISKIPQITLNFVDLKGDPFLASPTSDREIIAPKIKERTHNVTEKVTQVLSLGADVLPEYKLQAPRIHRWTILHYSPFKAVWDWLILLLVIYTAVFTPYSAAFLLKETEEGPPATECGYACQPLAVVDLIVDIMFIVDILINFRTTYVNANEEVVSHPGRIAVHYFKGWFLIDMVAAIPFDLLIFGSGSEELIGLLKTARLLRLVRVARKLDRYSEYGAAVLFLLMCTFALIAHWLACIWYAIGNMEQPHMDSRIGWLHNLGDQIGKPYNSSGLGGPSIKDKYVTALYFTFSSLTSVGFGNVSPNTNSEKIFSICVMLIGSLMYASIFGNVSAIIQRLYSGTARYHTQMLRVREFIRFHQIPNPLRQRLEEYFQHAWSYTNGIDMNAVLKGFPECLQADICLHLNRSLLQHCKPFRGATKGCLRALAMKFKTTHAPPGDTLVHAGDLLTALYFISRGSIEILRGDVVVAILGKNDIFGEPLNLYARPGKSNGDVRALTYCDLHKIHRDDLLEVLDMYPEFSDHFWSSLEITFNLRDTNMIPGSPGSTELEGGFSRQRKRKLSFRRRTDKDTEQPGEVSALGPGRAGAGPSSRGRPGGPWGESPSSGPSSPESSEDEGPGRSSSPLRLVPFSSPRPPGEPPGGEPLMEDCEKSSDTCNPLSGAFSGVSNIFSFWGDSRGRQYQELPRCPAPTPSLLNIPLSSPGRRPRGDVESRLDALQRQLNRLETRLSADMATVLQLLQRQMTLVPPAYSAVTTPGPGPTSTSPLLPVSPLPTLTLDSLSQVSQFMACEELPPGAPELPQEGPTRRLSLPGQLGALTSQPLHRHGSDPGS

Compound | hERG current change (%, negative = inhibition) at 1uM [%]
COc1cc(OC)c2c(-c3ccccc3)cc(=O)oc2c1C(CCN1CCCCC1)c1ccc2c(c1)OCO2 (stereo not shown) | 3.03
Cc1cc(NC(=O)CCSc2nc(-c3ccco3)cc(C(F)(F)F)n2)no1 | 8.23
O=C(O)c1cccc(CSc2nnc(COc3ccccc3)o2)c1 | -4.61
CCc1ccc(NC(=O)COc2ccc(Br)cn2)cc1 | 9.73
Cc1cc(NC(=O)C(C)SCC(=O)Nc2ccc(Br)cc2Br)no1 (stereo not shown) | 5.84
COc1cc(C(=O)O)ccc1O | 22.1
Cc1cc(C(=O)OCC(N)=O)c(C)n1-c1ccccc1 | 0.68
S=C(Nc1ccccn1)NC1CCCC1 | 0.746
C/C(=N\Nc1cc(-c2ccccc2)nc(-c2ccc(Br)cc2)n1)c1cccc(N)c1 | 11.4
COc1ccc(C(=O)NC(=S)Nc2ccc(S(=O)(=O)Nc3cc(OC)nc(OC)n3)cc2)cc1 | 13.7
CCSc1cc(N2CCCC2)nc(-c2ccc(F)cc2)n1 | -7.38
CN(C)CCN(C(=O)COc1ccc(Cl)cc1)c1nc2cc3c(cc2s1)OCO3 | 0.848
CCOc1ccc(C(=O)NC(=S)N(Cc2ccccc2)Cc2ccccc2)cc1 | -3.6
COc1ccc(CN2C(=O)CNC2=S)cc1 | 14.3
COc1cc(OC)cc(C(=O)N[C@H](C(=O)OCC(=O)N2CCc3ccccc32)C(C)C)c1 | 3.07
CS(=O)(=O)N1CCC(C(=O)N2CCC(Cc3ccccc3)CC2)CC1 | 2.65
CC(C)C(NS(=O)(=O)c1ccc2c(c1)OCCO2)C(=O)NCCc1ccccn1 (stereo not shown) | 9.37
Clc1cc(Cl)cc(CN2CCSCC2)c1 | 9.61
O.O=c1ccc2cc(OC3O[C@H](CO)[C@@H](O)[C@H](O)[C@H]3O)c(O)cc2o1 (stereo partly shown) | -12.6
CC1=CSC2=NC(=O)/C(=C/c3cccc(OC(=O)c4ccco4)c3)C(=N)N12 | 4.68
O=C1CCCN1CCCN1C(=O)N[C@@H](Cc2ccccc2)C1=O | 18.4
COc1ccccc1CCNC(=O)c1ccc(Br)s1 | 14

Compound | hERG current change (%, negative = inhibition) at 1uM [%]
O=C(CC12CC3CC(CC(C3)C1)C2)NC(Cc1ccccc1)C(=O)O (stereo not shown) | 21.5
c1cncc(Oc2cccc(Oc3cccnc3)c2)c1 | 7.86
COc1ccc(OC)c(NC(=O)CCNS(=O)(=O)c2cccc3nonc23)c1 | 11.8
C/C(N)=C(/C#N)C(=O)CSc1nc2cc(Cl)ccc2s1 | -7.65
COc1ccc(CNC(=O)C(=O)N2CCC3(CC2)OCCN3S(=O)(=O)c2ccc(C)cc2)cc1 | 2.1
O=C(NCCCNC(=O)c1cc(Cl)ccc1Cl)c1ccco1 | 12.3
Cc1ccccc1OCc1nnc(SCC(=O)O)n1Cc1ccccc1 | 4.45
COc1ccc(C(=O)CN2C(=O)NC3(CCCc4ccccc43)C2=O)cc1 (stereo not shown) | 4.43
CCCCCCCCCCC[C@@H](C[C@@H]1OC(=O)[C@H]1CCCCCC)OC(=O)[C@H](CC(C)C)NC=O | 5.12
O=[N+]([O-])c1[nH]cnc1/C=C/c1ccccc1 | 11.9
Cc1ccc(S(=O)(=O)Cn2nnnc2C(C(C)C)N2CCC(C(N)=O)CC2)cc1 (stereo not shown) | 16.9
COc1cc(/C=C(/C#N)c2nc3ccccc3c(=O)[nH]2)ccc1O | 11.6
Cc1cc(C(=O)O)ccc1-n1c(C)cc(/C=C2\SC(=O)NC2=O)c1C | 14.4
O=C(Cn1c(=O)cnc2ccccc21)N1CCCc2ccccc21 | 10.2
O=C(c1ccc2c(c1)N(Cc1ccccc1)CCS2)N1CCOCC1 | 9.06
Cc1ccc(C(=O)Nc2ccccc2C(=O)Nc2ccccn2)cc1Cl | 9.67
Cc1ccc(SCCN2CCN(Cc3ccccc3)CC2)cc1.O=C(O)C(=O)O | 10.7
CCC1(c2ccccc2)NC(=O)N(CC(=O)N2CC(=O)Nc3ccccc32)C1=O (stereo not shown) | 12.8
O=S(=O)(c1cc(Cl)ccc1Cl)N1CCc2ccccc21 | 1.08
COC(C(=O)NCc1ccccc1C)c1ccccc1 (stereo not shown) | 13.7
CC1CCCCC12NC(=O)N(CC(=O)N1CCN(S(=O)(=O)Cc3ccccc3)CC1)C2=O (stereo not shown) | 1.74
COc1ccc(-c2noc(C3CCCN(C(=O)c4cccs4)C3)n2)cc1 (stereo not shown) | 2.69

Compound | hERG current change (%, negative = inhibition) at 1uM [%]
O=C(CC(c1ccccc1)c1cc(Cl)ccc1O)NCCCN1CCOCC1 (stereo not shown) | -3.79
COc1cc(NC(=O)C2CCCCC2)c2ncccc2c1 | -0.263
COc1ccc(/C=N/NC(=O)c2ccc(O)cc2)cc1CN1CCCc2ccccc21 | 11.7
N#CCP(=S)(c1ccccc1)c1ccccc1 | -0.821
Cc1cc(NC(=O)c2ccccc2NS(=O)(=O)c2c(C)c(C)cc(C)c2C)no1 | 6.38
COc1ccc(OC)c(NC(=O)NNC(=O)COc2ccc([N+](=O)[O-])cc2)c1 | 7.62
COc1cc2c(cc1OC)C(c1ccc3c(c1)OCO3)CC(=O)N2 (stereo not shown) | -9.27
Cc1occc1-c1nnc(SCC(=O)NC(C)(C)C)n1CC(C)C | 11.8
O=C(NNc1ncccc1-n1cccc1)c1ccc(Cl)cc1 | 0.218
O=C(CCS(=O)(=O)c1ccc(Br)cc1)NCCc1ccccc1 | 7.11
Cc1cccc(NC(=O)/C(C#N)=C/c2ccc(F)cc2)n1 | 24.4
COc1ccccc1N(CC(=O)NC1CCCC1)C(=O)CNC(=O)c1cccs1 | 18.2
CCC(NC(=O)OCc1ccccc1)C(=O)Oc1ccc2ccc(=O)oc2c1 (stereo not shown) | 18.8
COc1cccc(-c2nn(-c3ccccc3)cc2C(=O)NCC(=O)O)c1 | 12.9
N#Cc1ccc(CN2CCN(c3ccc(S(=O)(=O)N4CCCC4)cn3)CC2)cc1 | -2
Cc1ccc(Cl)cc1NC(=S)N1CCC(c2ccccc2)C1 (stereo not shown) | 10.1
Cc1nnc(NC(=O)Nc2cccc(Cl)c2)s1 | 1.44
Cn1c(SCC(=O)N/N=C/c2ccc([N+](=O)[O-])s2)nnc1-c1ccc(Cl)cc1 | -0.743
Cc1ccc(-n2nnnc2-c2cnc3cc4c(cc3c2C)OCO4)cc1 | 9.78
COc1cccc(C2CNC3(CCCC(C)C3)c3[nH]c4ccccc4c32)c1OC.Cl (stereo not shown) | 8.05
CC(=O)Nc1ccc2nc(NC(=O)COc3cccc(C)c3)sc2c1 | 4.41
O=C(/C(N=Nc1cccc([N+](=O)[O-])c1)=C(/O)c1ccc(Br)cc1)C(F)(F)F | 16.2

Compound | hERG current change (%, negative = inhibition) at 1uM [%]
COc1cc(OC)cc(C(=O)Nc2ccc(NC(=O)c3ccco3)c(C)c2)c1 | 8.37
COCCNC(=S)N/N=C(\C)c1ccccc1F | 11.8
COc1ccc(NC(=O)COC(=O)c2ccc(S(=O)(=O)N(C)c3ccccc3OC)cc2)cc1OC | 24.4
COc1ccc2c(c1)-c1ccccc1S(=O)(=O)N2C | -2.81
O=C(COc1ccc(Cl)cc1)OCC(=O)N1CCCc2ccccc21 | 15.6
Cc1ccc(C)c(C2=NNC(=O)CC2)c1 | 9.5
O=C(c1cc(COc2ccc(F)cc2Cl)on1)N1CCCC(c2ccccc2)C1 (stereo not shown) | 9.53
COc1ccccc1/C=N/NC(=O)c1cccc(NC(=O)c2ccccc2C)c1 | 3.76
Cc1nc2c(C#N)cnn2c2c1CCN(Cc1ccccc1)N2C | 4.83
COc1ccc(C(=O)NCC(C)CN(C)C)cc1 (stereo not shown) | 1.94
CC(C)CC(NC(=O)C(CC(C)C)NC(=O)OC(C)(C)C)C(=O)O (stereo not shown) | 15.5
Cc1onc(-c2c(F)cccc2Cl)c1C(=O)NNC(=O)C1CCN(Cc2cccc(F)c2)CC1 | 8.71
CCCN1CCC(NC(=S)Nc2ccc(C(=O)OCC)cc2)CC1 | 4.88
CN(C(=O)CO/N=C/c1ccc(Cl)cc1)c1ccccc1 | -4.09
CCCC(=O)c1ccc(N2CCN(C(=O)c3ccccc3Br)CC2)c(F)c1 | 9.52
COc1ccc2nc(SCC(=O)NC3CCCC3)c(C)cc2c1 | 1.89
O=C(O)c1ccc(S(=O)(=O)N2CCCC2)cc1 | 14.4
Cc1cc(C)c(S(=O)(=O)N2CCCCC2CCNC(=O)C(=O)NCc2ccco2)c(C)c1 (stereo not shown) | 14.5
COc1cccc(NC(=O)CSc2nc3n[nH]c(C)c3c(=N)n2-c2cccc(OC)c2)c1 | 2.18
CC(C)c1ccc(-c2c(C#N)c(N)nc(SCC(=O)N3CCCCC3)c2C#N)cc1 | 13.8
Cc1ccc(Cn2c(SCC(C)C)nc3c2c(=O)[nH]c(=O)n3C)cc1 | 9.48
O=S(=O)(c1ccc(OCC2CO2)cc1)c1ccc(OCC2CO2)cc1 (stereo not shown) | 20
